Assay results as given in a collection of fitness landscapes (doi:10.1016/j.celrep.2020.107928).
Whole data set: some 81,000 sequences, median “one-hybrid fitness for binding NBS DNA” near -0.1, cut for the highest 2% near 0.36. The list shows a part of the results.

B1: Caulobacter ParB omega fusion; a variant is named by its letters at X, in order, B8GW30 (parent)
chain: MESVVVGEPGMSEGRRGLGRGLSALLGEVDAAPAQAPGEQLGGSREAPIEILQRNPDQPRRTFREEDLEDLSNSIREKGVLQPILVRPSPDTAGEYQIVAGERAWRAAQRAGLKTVPIMVRELDDLAVLEIGIIENVQRADLNVLEEALSYKVLMEKFERTQENIAQTIGKSXSHVANXMRLLXLPDEVQSYLVSGELTAXHARAIAAAADPVALAKQIIEGGLSVRETEALARKAPNLSAGKSKGGRPPRVKDTDTQALESDLSSVLGLDVSIDHRGSTGTLTITYATLEQLDDLCNRLTRGI

Variants of: B1
Assay: one-hybrid fitness for binding NBS DNA (the Noc-binding site; scaled: cognate 1, non-cognate 0); higher = stronger binding
Conditions: with NBS DNA site
Method in brief: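 On M9-minus-histidine containing 0.1 mM IPTG and 5 mM 3-AT, E. coli USO cells with a HIS3 reporter, site 19 bp from the promoter, grew 48 hours at 37°C to select Caulobacter ParB libraries randomised at four specificity codons. Plasmids from before and after were Illumina-sequenced, with three replicate libraries pooled and variants under 10 reads left out. Fitness is the log change in variant-to-wild-type read ratio, rescaled against cognate and non-cognate.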

Row | Variant | one-hybrid fitness for binding NBS DNA
1 | QPYS | ≤ 0.2
2 | FADW | ≤ 0.2
3 | AIQF | ≤ 0.2
4 | GSDA | ≤ 0.2
5 | KHFR | ≤ 0.2
6 | TCPR | ≤ 0.2
7 | ETEM | ≤ 0.2
8 | NFYR | ≤ 0.2
9 | RKTA | 0.315
10 | YSKV | ≤ 0.2
11 | FMMS | ≤ 0.2
12 | MVTR | ≤ 0.2
13 | LTHY | ≤ 0.2
14 | QWMW | ≤ 0.2
15 | RYKY | 0.306
16 | CLYR | ≤ 0.2
17 | PRLI | ≤ 0.2
18 | RGET | ≤ 0.2
19 | LKTI | ≤ 0.2
20 | FSLG | ≤ 0.2
21 | CRSS | ≤ 0.2
22 | NDSC | ≤ 0.2
23 | TIQD | ≤ 0.2
24 | NNEG | ≤ 0.2

Row | Variant | one-hybrid fitness for binding NBS DNA
25 | NISG | ≤ 0.2
26 | CKWS | ≤ 0.2
27 | RHPV | ≤ 0.2
28 | PAGV | ≤ 0.2
29 | YYPK | ≤ 0.2
30 | RFFR | ≤ 0.2
31 | FITR | ≤ 0.2
32 | CLSL | ≤ 0.2
33 | HRHV | ≤ 0.2
34 | LEQP | ≤ 0.2
35 | WAPA | ≤ 0.2
36 | EYYT | ≤ 0.2
37 | RDVL | ≤ 0.2
38 | YRHR | ≤ 0.2
39 | HQRR | ≤ 0.2
40 | FSNC | ≤ 0.2
41 | ASDC | ≤ 0.2
42 | KRRA | 0.524
43 | IRPW | ≤ 0.2
44 | IRTW | ≤ 0.2
45 | HGPR | ≤ 0.2
46 | LPLV | ≤ 0.2
47 | STFQ | ≤ 0.2
48 | QPFC | ≤ 0.2

Row | Variant | one-hybrid fitness for binding NBS DNA
49 | RATS | 0.433
50 | RFYP | ≤ 0.2
51 | DSLS | ≤ 0.2
52 | RGVQ | ≤ 0.2
53 | SDCT | ≤ 0.2
54 | NKPQ | ≤ 0.2
55 | WSTN | ≤ 0.2
56 | NRGS | ≤ 0.2
57 | KSCS | ≤ 0.2
58 | KAYS | ≤ 0.2
59 | VDVY | ≤ 0.2
60 | GDYN | ≤ 0.2
61 | CSMC | ≤ 0.2
62 | CSGC | ≤ 0.2
63 | RQWF | ≤ 0.2
64 | RNDC | ≤ 0.2
65 | QQLD | ≤ 0.2
66 | KFQV | ≤ 0.2
67 | HPAL | ≤ 0.2
68 | ELGR | ≤ 0.2
69 | SFLR | ≤ 0.2
70 | PRPF | ≤ 0.2
71 | FFDS | ≤ 0.2
72 | TQNG | ≤ 0.2

Row | Variant | one-hybrid fitness for binding NBS DNA
73 | WNRG | ≤ 0.2
74 | TGAM | ≤ 0.2
75 | CLFV | ≤ 0.2
76 | IVCG | ≤ 0.2
77 | LSTT | ≤ 0.2
78 | LTCP | ≤ 0.2
79 | TVNW | ≤ 0.2
80 | YYCS | ≤ 0.2
81 | MRFC | ≤ 0.2
82 | PDWE | ≤ 0.2
83 | SPQS | ≤ 0.2
84 | VPTR | ≤ 0.2
85 | PWVT | ≤ 0.2
86 | IDTC | ≤ 0.2
87 | VNTH | ≤ 0.2
88 | ANCC | ≤ 0.2
89 | LWQE | ≤ 0.2
90 | RFER | ≤ 0.2
91 | AVLW | ≤ 0.2
92 | RHYS | 0.376
93 | GKQV | ≤ 0.2
94 | QNLQ | ≤ 0.2
95 | TSMA | ≤ 0.2
96 | QCEW | ≤ 0.2

Row | Variant | one-hybrid fitness for binding NBS DNA
97 | WPSF | ≤ 0.2
98 | WAYS | ≤ 0.2
99 | YVER | ≤ 0.2
100 | SGCI | ≤ 0.2
101 | HPTN | ≤ 0.2
102 | QCFD | ≤ 0.2
103 | TQHP | ≤ 0.2
104 | FRRH | ≤ 0.2
105 | NETN | ≤ 0.2
106 | PAYI | ≤ 0.2
107 | KVKC | ≤ 0.2
108 | SNIN | ≤ 0.2
109 | NFYF | ≤ 0.2
110 | HSTI | ≤ 0.2
111 | RGPW | ≤ 0.2
112 | HTRI | ≤ 0.2
113 | EMPG | ≤ 0.2
114 | TLTF | ≤ 0.2
115 | RKMQ | ≤ 0.2
116 | ATTI | ≤ 0.2
117 | SQFS | ≤ 0.2
118 | DAHP | ≤ 0.2
119 | TCTE | ≤ 0.2
120 | RCCP | ≤ 0.2

Row | Variant | one-hybrid fitness for binding NBS DNA
121 | AARC | ≤ 0.2
122 | YARR | ≤ 0.2
123 | CHLE | ≤ 0.2
124 | RSNG | ≤ 0.2
125 | RSFY | ≤ 0.2
126 | RAVK | ≤ 0.2
127 | MCGR | ≤ 0.2
128 | WYGL | ≤ 0.2
129 | INAK | ≤ 0.2
130 | ASGA | ≤ 0.2
131 | WNTP | ≤ 0.2
132 | SYPC | ≤ 0.2
133 | QKLK | ≤ 0.2
134 | GNND | ≤ 0.2
135 | WKNN | ≤ 0.2
136 | IMSR | ≤ 0.2
137 | RDRP | ≤ 0.2
138 | EDYP | ≤ 0.2
139 | ACLF | ≤ 0.2
140 | HLRR | ≤ 0.2
141 | ISIF | ≤ 0.2
142 | FPRF | ≤ 0.2
143 | MSIF | ≤ 0.2
144 | VGES | ≤ 0.2

Row | Variant | one-hybrid fitness for binding NBS DNA
145 | RWCR | ≤ 0.2
146 | NIMD | ≤ 0.2
147 | LILE | ≤ 0.2
148 | DVTW | ≤ 0.2
149 | DPLN | ≤ 0.2
150 | ITWR | ≤ 0.2
151 | MTNP | ≤ 0.2
152 | SAHI | ≤ 0.2
153 | SFPY | ≤ 0.2
154 | ATLY | ≤ 0.2
155 | QTRV | 0.576
156 | RMPK | ≤ 0.2
157 | ASLS | ≤ 0.2
158 | IAHC | ≤ 0.2
159 | AMKC | ≤ 0.2
160 | VICL | ≤ 0.2
161 | RSLH | ≤ 0.2
162 | IMSF | ≤ 0.2
163 | WFNR | ≤ 0.2
164 | WNGF | ≤ 0.2
165 | QPCT | ≤ 0.2
166 | GPPF | ≤ 0.2
167 | TSQC | ≤ 0.2
168 | TVQM | ≤ 0.2

Row | Variant | one-hybrid fitness for binding NBS DNA
169 | RPEV | ≤ 0.2
170 | SNHL | ≤ 0.2
171 | YNDR | ≤ 0.2
172 | IFHG | ≤ 0.2
173 | TAGQ | ≤ 0.2
174 | PMTY | ≤ 0.2
175 | ACTC | ≤ 0.2
176 | TLFC | ≤ 0.2
177 | EELK | ≤ 0.2
178 | CSPN | ≤ 0.2
179 | RPWR | ≤ 0.2
180 | WATS | ≤ 0.2
181 | SDTL | ≤ 0.2
182 | CVQR | ≤ 0.2
183 | IFYT | ≤ 0.2
184 | WTTQ | ≤ 0.2
185 | WAVM | ≤ 0.2
186 | EWRC | ≤ 0.2
187 | WADF | ≤ 0.2
188 | CGTG | ≤ 0.2
189 | IRVE | ≤ 0.2
190 | PMPL | ≤ 0.2
191 | KRLQ | ≤ 0.2
192 | TQGG | ≤ 0.2

Row | Variant | one-hybrid fitness for binding NBS DNA
193 | IMNT | ≤ 0.2
194 | CPNT | ≤ 0.2
195 | HGCK | ≤ 0.2
196 | HWVP | ≤ 0.2
197 | YKRG | ≤ 0.2
198 | PSHC | ≤ 0.2
199 | RIVL | ≤ 0.2
200 | WALG | ≤ 0.2
201 | LSHQ | ≤ 0.2
202 | GRFP | ≤ 0.2
203 | YELG | ≤ 0.2
204 | DHTI | ≤ 0.2
205 | REYR | ≤ 0.2
206 | LRSQ | ≤ 0.2
207 | NPPH | ≤ 0.2
208 | LIPA | ≤ 0.2
209 | CLWG | ≤ 0.2
210 | RMAR | 0.46
211 | GMKT | ≤ 0.2
212 | HQRS | ≤ 0.2
213 | APTK | ≤ 0.2
214 | GLNK | ≤ 0.2
215 | RPRV | ≤ 0.2
216 | DKNR | ≤ 0.2

Row | Variant | one-hybrid fitness for binding NBS DNA
217 | HAVT | ≤ 0.2
218 | CIWG | ≤ 0.2
219 | FQST | ≤ 0.2
220 | DWRS | ≤ 0.2
221 | DAAT | ≤ 0.2
222 | VKNL | ≤ 0.2
223 | CSPL | ≤ 0.2
224 | QCAC | ≤ 0.2
225 | YRHL | ≤ 0.2
226 | NSSP | ≤ 0.2
227 | RKIA | ≤ 0.2
228 | RLTT | 0.454
229 | ACGN | ≤ 0.2
230 | STTI | ≤ 0.2
231 | WRHA | ≤ 0.2
232 | AYTM | ≤ 0.2
233 | ASDG | ≤ 0.2
234 | GQPP | ≤ 0.2
235 | FWRC | ≤ 0.2
236 | VEVN | ≤ 0.2
237 | HPDY | ≤ 0.2
238 | VISD | ≤ 0.2
239 | IGNS | ≤ 0.2
240 | HLNF | ≤ 0.2

Row | Variant | one-hybrid fitness for binding NBS DNA
241 | LPAY | ≤ 0.2
242 | QINM | ≤ 0.2
243 | NGHL | ≤ 0.2
244 | TAIN | ≤ 0.2
245 | MCKT | ≤ 0.2
246 | EVMT | ≤ 0.2
247 | RLPQ | ≤ 0.2
248 | YVDY | ≤ 0.2
249 | NYYL | ≤ 0.2
250 | ACPS | ≤ 0.2
251 | FNPD | ≤ 0.2
252 | VCQM | ≤ 0.2
253 | SKGT | ≤ 0.2
254 | PTLP | ≤ 0.2
255 | CMQI | ≤ 0.2
256 | MAGS | ≤ 0.2
257 | NSAT | ≤ 0.2
258 | GASW | ≤ 0.2
259 | QHQK | ≤ 0.2
260 | AMRS | ≤ 0.2
261 | WEWS | ≤ 0.2
262 | LNKA | ≤ 0.2
263 | MDLY | ≤ 0.2
264 | WNTR | ≤ 0.2

Row | Variant | one-hybrid fitness for binding NBS DNA
265 | VTLT | ≤ 0.2
266 | SYKP | ≤ 0.2
267 | TYVS | ≤ 0.2
268 | WHLL | ≤ 0.2
269 | WTTK | ≤ 0.2
270 | QCKG | 0.377
271 | NYSR | ≤ 0.2
272 | AGLV | ≤ 0.2
273 | SAEV | ≤ 0.2
274 | HSMG | ≤ 0.2
275 | QAYI | ≤ 0.2
276 | AKNF | ≤ 0.2
277 | PNQN | ≤ 0.2
278 | FKQG | ≤ 0.2
279 | LYKM | ≤ 0.2
280 | MSCN | ≤ 0.2
281 | TVAW | ≤ 0.2
282 | RCNK | ≤ 0.2
283 | AACA | ≤ 0.2
284 | LCCC | ≤ 0.2
285 | PKER | ≤ 0.2
286 | SPSM | ≤ 0.2
287 | KTLS | ≤ 0.2
288 | DRYY | ≤ 0.2

Row | Variant | one-hybrid fitness for binding NBS DNA
289 | GSFG | ≤ 0.2
290 | DPHT | ≤ 0.2
291 | QLIT | 0.287
292 | LVFG | ≤ 0.2
293 | NEVN | ≤ 0.2
294 | IDSG | ≤ 0.2
295 | KPGG | ≤ 0.2
296 | ANDR | ≤ 0.2
297 | IRDT | ≤ 0.2
298 | KESS | ≤ 0.2
299 | VPNA | ≤ 0.2
300 | EEVT | ≤ 0.2
301 | READ | ≤ 0.2
302 | RVAQ | ≤ 0.2
303 | VTKY | ≤ 0.2
304 | IRCY | ≤ 0.2
305 | ASGS | ≤ 0.2
306 | VAET | ≤ 0.2
